From paper PMC10112965
These are yes or no findings as the source states them, for the method shown. For some assays here: Binding seen in cells or lysates may run through a third protein. Some entries that bind do so weakly or less than the wild type.

Chains of the proteins cited; added tags and fusions are not shown. Lines headed by an entry give the natural chain unless they say otherwise; changes in a name come on top. A line that says so, or that is headed by a name, gives the form on record, which may keep a tag or linker.
UniProt Q14839: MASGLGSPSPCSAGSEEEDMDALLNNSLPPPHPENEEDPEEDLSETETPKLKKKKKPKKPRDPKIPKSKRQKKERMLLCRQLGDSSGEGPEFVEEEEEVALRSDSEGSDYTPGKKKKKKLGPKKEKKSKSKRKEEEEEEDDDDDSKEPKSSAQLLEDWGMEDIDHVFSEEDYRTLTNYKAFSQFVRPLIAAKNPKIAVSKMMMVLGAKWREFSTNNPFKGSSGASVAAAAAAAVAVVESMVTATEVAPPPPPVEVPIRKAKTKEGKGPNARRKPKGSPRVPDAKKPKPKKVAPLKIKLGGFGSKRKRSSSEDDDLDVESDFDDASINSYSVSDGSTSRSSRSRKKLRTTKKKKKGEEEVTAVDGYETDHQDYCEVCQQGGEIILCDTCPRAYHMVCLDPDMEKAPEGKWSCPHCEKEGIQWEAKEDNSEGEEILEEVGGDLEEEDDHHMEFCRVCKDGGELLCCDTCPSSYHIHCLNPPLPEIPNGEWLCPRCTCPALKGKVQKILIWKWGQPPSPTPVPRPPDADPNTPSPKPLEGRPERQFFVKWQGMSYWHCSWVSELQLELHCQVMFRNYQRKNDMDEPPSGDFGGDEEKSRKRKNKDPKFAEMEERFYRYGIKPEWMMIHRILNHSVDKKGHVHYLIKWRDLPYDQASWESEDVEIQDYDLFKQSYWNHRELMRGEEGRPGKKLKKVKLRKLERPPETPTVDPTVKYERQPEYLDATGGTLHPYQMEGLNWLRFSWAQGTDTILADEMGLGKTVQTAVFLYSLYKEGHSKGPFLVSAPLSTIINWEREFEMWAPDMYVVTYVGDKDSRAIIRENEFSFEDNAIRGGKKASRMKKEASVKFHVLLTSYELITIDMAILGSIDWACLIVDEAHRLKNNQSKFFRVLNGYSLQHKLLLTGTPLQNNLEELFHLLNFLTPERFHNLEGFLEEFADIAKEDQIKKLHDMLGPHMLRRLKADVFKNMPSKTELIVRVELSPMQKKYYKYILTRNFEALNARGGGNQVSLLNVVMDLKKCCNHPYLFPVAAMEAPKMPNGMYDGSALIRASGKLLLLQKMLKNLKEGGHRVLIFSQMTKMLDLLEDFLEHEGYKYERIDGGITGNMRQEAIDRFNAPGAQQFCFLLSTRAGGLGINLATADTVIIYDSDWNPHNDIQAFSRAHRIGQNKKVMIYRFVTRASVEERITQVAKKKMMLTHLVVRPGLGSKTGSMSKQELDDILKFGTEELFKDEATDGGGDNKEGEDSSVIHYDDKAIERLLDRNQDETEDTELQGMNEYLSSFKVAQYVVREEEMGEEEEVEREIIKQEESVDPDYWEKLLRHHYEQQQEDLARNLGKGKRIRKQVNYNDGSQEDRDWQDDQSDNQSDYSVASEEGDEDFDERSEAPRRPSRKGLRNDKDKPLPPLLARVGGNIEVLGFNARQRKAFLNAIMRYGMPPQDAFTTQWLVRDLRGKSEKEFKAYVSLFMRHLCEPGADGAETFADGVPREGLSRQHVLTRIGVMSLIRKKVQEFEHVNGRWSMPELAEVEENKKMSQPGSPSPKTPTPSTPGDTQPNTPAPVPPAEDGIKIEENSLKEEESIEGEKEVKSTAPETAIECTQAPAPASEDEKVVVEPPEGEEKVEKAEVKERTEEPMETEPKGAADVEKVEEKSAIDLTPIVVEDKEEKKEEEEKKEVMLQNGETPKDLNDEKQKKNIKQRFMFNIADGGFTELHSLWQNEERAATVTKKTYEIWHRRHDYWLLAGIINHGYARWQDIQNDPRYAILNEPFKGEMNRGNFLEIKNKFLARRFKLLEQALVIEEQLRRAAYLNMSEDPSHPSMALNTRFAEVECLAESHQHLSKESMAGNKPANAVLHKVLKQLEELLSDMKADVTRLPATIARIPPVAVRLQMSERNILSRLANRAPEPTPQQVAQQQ
CHD4-C-Flag Δ aa 2–149 (Q14839, form named): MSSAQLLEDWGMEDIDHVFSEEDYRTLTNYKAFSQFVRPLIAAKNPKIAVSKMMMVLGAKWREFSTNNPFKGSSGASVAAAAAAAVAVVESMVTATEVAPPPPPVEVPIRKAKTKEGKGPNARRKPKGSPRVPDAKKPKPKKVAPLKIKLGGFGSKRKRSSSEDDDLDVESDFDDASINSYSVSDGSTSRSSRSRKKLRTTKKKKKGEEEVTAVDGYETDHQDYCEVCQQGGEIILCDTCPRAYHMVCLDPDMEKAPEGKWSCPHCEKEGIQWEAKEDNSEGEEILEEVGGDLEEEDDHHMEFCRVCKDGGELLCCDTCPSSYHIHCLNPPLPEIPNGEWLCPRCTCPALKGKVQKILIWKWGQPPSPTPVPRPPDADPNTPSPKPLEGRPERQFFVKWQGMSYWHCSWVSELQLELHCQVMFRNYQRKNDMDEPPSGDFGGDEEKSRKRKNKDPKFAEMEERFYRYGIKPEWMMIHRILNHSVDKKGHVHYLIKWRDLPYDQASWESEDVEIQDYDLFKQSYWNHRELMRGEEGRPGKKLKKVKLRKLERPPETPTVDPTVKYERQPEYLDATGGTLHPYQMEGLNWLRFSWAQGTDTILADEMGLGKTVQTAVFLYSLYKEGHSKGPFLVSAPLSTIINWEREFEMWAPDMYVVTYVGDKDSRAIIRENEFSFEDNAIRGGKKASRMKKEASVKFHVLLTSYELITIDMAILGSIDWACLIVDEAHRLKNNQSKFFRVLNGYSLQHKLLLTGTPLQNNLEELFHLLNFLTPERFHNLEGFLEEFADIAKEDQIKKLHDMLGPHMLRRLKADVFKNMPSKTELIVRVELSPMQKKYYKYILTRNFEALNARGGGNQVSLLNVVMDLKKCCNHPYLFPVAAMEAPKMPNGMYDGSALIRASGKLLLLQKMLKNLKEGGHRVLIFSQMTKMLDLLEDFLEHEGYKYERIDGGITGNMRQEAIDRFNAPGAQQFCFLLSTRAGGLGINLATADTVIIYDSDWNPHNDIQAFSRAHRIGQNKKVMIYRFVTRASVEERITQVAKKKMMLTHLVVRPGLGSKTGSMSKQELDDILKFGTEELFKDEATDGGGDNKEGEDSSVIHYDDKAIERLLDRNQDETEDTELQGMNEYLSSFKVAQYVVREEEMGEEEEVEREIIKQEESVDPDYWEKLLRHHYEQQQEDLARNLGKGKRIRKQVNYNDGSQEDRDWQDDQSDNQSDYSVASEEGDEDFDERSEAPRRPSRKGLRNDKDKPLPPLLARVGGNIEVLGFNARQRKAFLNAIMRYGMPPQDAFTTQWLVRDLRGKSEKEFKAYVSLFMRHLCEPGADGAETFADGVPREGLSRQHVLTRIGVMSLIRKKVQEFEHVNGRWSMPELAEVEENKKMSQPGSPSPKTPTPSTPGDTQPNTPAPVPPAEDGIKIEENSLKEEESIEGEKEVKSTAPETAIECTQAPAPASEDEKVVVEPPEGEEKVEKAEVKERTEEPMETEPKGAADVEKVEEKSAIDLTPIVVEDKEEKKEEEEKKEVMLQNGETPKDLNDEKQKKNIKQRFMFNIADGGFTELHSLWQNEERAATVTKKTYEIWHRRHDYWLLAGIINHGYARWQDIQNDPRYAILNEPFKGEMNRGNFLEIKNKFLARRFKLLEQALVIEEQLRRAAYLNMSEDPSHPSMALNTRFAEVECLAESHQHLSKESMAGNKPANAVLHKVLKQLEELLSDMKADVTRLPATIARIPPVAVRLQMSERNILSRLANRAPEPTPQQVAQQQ
CHD4-C-Flag aa 304–307 Ala (Q14839, form named): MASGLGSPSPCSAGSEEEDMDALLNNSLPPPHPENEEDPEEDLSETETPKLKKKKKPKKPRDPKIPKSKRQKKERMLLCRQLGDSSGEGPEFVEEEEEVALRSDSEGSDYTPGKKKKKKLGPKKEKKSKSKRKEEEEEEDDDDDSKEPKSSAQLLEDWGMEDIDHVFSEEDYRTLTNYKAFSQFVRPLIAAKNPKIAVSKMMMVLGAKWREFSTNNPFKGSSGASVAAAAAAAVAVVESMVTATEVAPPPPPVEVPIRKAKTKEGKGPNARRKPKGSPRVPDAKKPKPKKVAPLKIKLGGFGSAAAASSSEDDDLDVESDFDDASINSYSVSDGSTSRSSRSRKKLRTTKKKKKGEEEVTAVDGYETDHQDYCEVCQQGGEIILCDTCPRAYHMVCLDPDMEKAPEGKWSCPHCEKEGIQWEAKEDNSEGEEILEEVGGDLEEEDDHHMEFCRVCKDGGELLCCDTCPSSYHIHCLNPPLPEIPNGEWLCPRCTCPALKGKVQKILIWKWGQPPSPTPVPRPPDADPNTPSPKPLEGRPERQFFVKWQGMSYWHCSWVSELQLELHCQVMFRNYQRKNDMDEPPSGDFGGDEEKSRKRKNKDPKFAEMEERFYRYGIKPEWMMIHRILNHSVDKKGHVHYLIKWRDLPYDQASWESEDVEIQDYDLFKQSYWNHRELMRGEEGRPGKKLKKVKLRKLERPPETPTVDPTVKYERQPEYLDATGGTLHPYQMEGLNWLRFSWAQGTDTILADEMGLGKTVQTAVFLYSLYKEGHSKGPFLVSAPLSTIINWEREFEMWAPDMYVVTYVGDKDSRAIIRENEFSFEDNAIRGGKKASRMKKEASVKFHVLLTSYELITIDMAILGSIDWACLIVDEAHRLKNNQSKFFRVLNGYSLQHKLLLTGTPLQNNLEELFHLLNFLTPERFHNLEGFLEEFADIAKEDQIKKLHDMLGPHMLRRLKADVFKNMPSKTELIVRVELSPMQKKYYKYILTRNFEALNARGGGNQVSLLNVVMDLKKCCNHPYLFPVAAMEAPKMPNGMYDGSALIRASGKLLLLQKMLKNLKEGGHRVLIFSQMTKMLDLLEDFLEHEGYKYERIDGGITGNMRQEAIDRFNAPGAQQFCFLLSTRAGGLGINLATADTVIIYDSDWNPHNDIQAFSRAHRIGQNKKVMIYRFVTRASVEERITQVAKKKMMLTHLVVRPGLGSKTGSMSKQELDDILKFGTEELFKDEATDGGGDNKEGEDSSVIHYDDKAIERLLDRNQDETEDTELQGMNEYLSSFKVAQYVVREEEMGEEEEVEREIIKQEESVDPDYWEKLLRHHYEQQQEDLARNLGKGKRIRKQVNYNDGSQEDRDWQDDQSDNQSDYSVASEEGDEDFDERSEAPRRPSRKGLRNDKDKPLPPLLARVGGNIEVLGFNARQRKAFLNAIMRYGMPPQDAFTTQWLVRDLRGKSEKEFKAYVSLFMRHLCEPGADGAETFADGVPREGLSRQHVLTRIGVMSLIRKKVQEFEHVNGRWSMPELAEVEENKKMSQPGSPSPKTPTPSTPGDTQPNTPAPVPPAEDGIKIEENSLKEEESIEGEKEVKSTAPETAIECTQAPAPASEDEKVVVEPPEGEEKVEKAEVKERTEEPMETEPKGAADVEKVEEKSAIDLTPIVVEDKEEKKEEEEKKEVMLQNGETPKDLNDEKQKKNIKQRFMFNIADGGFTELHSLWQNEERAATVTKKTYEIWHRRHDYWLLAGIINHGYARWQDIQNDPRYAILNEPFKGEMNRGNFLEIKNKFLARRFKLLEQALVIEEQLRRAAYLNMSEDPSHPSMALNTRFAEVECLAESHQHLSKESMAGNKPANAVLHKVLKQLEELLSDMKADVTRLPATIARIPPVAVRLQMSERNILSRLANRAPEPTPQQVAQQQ
UniProt P52294: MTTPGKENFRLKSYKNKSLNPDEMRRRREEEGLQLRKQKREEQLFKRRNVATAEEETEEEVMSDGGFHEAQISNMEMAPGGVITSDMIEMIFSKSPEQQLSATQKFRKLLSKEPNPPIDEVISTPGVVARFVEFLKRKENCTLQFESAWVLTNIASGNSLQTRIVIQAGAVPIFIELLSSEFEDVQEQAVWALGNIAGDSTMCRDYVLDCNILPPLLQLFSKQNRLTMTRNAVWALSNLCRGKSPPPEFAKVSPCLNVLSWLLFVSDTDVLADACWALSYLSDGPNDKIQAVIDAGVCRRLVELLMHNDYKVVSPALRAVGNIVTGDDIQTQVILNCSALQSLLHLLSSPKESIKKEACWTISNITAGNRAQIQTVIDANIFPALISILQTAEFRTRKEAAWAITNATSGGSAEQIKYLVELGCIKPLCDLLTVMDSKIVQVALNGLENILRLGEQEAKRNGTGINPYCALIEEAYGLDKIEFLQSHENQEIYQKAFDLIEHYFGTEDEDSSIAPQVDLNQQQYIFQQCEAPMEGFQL

Tests used:
[1] = target: C-terminal GFP-tagged CHD4 wild-type (human) (UniProt Q14839); test: co-IP; GFP-Trap A on nuclear extract of stably transfected HEK 293 cells, 24 h doxycycline; IP buffer with 150 mM NaCl, one wash with 500 mM NaCl; western blot
GST–importin α5 = GST–importin α5 (UniProt P52294); test: pull-down; GST or GST–importins (15 µg) immobilised on glutathione–Sepharose 4B, in the absence or presence of His-tagged importin-β or nucleoplasmin (1:1 molar with importins); 1.5 µg purified CHD4 protein added; 20 mM HEPES pH 7.5, 100 mM KOAc, 0.5 mM EGTA, 5 mM MgOAc, 250 mM sucrose, 4°C; western blot of bead fractions; both purified
GST–importin β1 = GST–importin β1 (UniProt Q14974); test: as above
[2] = target: C-terminal GFP-tagged CHD4 wild-type (human) (UniProt Q14839); test: co-IP; GFP-Trap A on cytoplasmic extract of stably transfected HEK 293 cells, 24 h doxycycline; IP buffer with 150 mM KCl, one wash with 500 mM KCl; western blot

| binding [1] | binding (GST–importin β1) | Substance | other results |
| --- | --- | --- | --- |
| – | no binding (tested: 1.5 µg CHD4 protein) | CHD4-C-Flag, C-terminal Flag-tagged recombinant human CHD4 wild-type (from UniProt Q14839 1-1912) (enzyme) | binding (GST–importin α5): binds |
| – | no binding (tested: 1.5 µg CHD4 protein) | CHD4-C-Flag Δ aa 217–360 (from UniProt Q14839 1-1912) (enzyme) | – |

The remaining lines, values behind:

| Substance | binding [1] | binding (GST–importin β1) | other results |
| --- | --- | --- | --- |
| importin β1 (from UniProt Q14974 1-876) | no binding | – | – |
| importin α5 (from UniProt P52294 1-538) | binds | – | – |
| CHD4-C-Flag Δ aa 2–149 (from UniProt Q14839 1-1912) (enzyme) | – | no binding (tested: 1.5 µg CHD4 protein) | – |
| importin α7 (from UniProt O60684 1-536) | binds | – | – |
| His-tagged nucleoplasmin (from UniProt P05221 1-200) | – | – | binding (GST–importin α5): binds |
| CHD4-C-Flag aa 304–307 Ala (from UniProt Q14839 1-1912) (enzyme) | – | no binding (tested: 1.5 µg CHD4 protein) | – |
| HDAC1 (from UniProt Q13547 1-482) (enzyme) | binds | – | binding [2]: binds |
